Results on 45 molecules are retold here after publication PMC4336329 (PLoS ONE, 2015).

Molecules are shown by their SMILES. Out of some 310,000 compounds screened, about 2,200 (0.71%) showed an effect of 50% or more. Effects have a minus sign here. Some of the results follow.

human ether-à-go-go-related gene (hERG) potassium channel, sequence (Q12809 whole entry, looked up): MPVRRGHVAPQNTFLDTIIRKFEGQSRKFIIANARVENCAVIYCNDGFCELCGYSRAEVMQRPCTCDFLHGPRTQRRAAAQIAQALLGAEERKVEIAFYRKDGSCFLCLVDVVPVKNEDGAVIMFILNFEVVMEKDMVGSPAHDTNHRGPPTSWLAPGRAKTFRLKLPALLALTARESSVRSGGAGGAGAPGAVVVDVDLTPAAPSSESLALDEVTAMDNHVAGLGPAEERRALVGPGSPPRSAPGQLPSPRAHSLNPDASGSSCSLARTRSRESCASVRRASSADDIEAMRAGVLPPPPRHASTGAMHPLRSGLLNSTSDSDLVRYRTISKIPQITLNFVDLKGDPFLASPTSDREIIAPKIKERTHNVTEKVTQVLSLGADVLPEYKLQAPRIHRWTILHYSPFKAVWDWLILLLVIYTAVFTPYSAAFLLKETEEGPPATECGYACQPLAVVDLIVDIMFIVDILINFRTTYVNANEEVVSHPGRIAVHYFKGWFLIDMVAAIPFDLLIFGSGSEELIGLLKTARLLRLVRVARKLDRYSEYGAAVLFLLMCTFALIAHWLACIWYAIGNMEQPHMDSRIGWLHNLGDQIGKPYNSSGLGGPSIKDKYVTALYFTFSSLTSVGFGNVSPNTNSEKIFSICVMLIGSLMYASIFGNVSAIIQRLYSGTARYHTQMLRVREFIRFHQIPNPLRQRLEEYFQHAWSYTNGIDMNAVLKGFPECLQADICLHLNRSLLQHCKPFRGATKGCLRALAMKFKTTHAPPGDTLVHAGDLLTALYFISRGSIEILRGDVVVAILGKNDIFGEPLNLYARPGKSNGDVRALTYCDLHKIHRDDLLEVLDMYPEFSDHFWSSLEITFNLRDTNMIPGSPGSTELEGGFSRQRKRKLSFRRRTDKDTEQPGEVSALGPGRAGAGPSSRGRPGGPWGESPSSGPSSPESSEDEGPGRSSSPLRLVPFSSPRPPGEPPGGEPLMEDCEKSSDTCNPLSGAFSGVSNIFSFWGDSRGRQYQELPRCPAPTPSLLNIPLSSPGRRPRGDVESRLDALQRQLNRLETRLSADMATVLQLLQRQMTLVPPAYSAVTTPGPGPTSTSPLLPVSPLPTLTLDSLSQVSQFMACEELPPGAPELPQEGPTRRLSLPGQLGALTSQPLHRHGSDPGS

The experiment has as its target human ether-à-go-go-related gene (hERG) potassium channel (human, UniProt Q12809). Description: primary screen, population patch clamp on CHO cells stably expressing hERG.
`Cc1c(NC(=O)COC(=O)C23CC4CC(CC(O)(C4)C2)C3)c(=O)n(-c2ccccc2)n1C`: the “hERG current change (%, negative = inhibition) at 1uM” value is 7.24%.
Under `CCCOn1nnnc1-c1ccccc1` stands 13.6%; under `COc1ccc(C(C)n2c(C)c3c(C)nnc(C)c3c2C)cc1` (stereo not drawn), -52.3%.
Under `O=C(CSc1ccc(-c2nc3ccccc3[nH]2)cn1)Nc1ccc(S(=O)(=O)NC2CC2)cc1` stands 5.89%; under `CCOC(=O)C1CCN(C(=O)c2cccc(S(=O)(=O)N3c4ccccc4CC3C)c2)CC1` (stereo not drawn), -9.25%.
Under `Cc1ccc(S(=O)(=O)NC(C)C(=O)OCC(=O)N(C)c2ccccc2)cc1` (stereo not drawn) stands 12.6%; under `Cc1sc2nc(SCC(=O)N(C)C)[nH]c(=O)c2c1C`, 10.4%.
Turning to `COc1cc(/C=C2\SC(=S)N(CCC(=O)Nc3ccccn3)C2=O)cc(OC)c1OC`, the “hERG current change (%, negative = inhibition) at 1uM” value was 5.8%.
Turning to `COc1cc(/C=N/NC(=O)c2ccc(N)cc2)ccc1OC(=O)c1cccc(C)c1`, the “hERG current change (%, negative = inhibition) at 1uM” value worked out at 9.03%.
Under `O=C(Nc1cccc(S(=O)(=O)N2CCCC2)c1)c1cccc(S(=O)(=O)N2CCOCC2)c1` stands 6.09%; under `Cc1cccc(NC(=S)NC(=O)c2oc3ccccc3c2C)n1`, 21%; under `Cc1nc(NC2=NCN(CCCN3CCOCC3)CN2)nc2c(C)cccc12`, 10.9%.
With `O=S(=O)(O)c1ccc(SCc2ccccc2)nc1` the figure was 13.1%; with `O=C(O)Cn1cc(C(=S)N2CCCCC2)c2ccccc21`, 10.2%.
Under `Cc1cc(C)cc(-n2nnc(C(=O)NCc3ccc4c(c3)OCO4)c2N)c1` stands -0.637%; under `Cc1ccc(N2CCN(C(=O)c3ccccc3NC(=O)c3ccccc3C(=O)O)CC2)cc1`, 0.204%.
Regarding `O=C(NCc1ccco1)c1ccc2[nH]c(=O)c(=O)[nH]c2c1`, the “hERG current change (%, negative = inhibition) at 1uM” value came out at 4.09%.
With `Cc1ccc(C(=O)NCc2ccc3c(c2)OCO3)cc1Cl` the figure was 15.9%; with `O=C(N/C(=C\c1cccs1)C(=O)N1CCCCCC1)c1ccccc1`, 1.61%.
Consider `Cc1ccc(-c2nnn(CCC(=O)NC(C)(C)C)n2)cc1`, for which the “hERG current change (%, negative = inhibition) at 1uM” value was 5.38%.
In the case of `C=CCc1cc(C)ccc1OCC(O)CN1CCN(c2ccccc2)CC1` (stereo not drawn), the “hERG current change (%, negative = inhibition) at 1uM” value was 1.51%.
On to `COc1ccc(C)cc1NC(=O)COC(=O)c1c(C)nn(-c2ccccc2)c1C`, for which the “hERG current change (%, negative = inhibition) at 1uM” value amounted to 9.3%.
As to `O=[N+]([O-])c1ccc2c(c1)nc1n2CCN(c2ccccc2)C1`, the “hERG current change (%, negative = inhibition) at 1uM” value is listed as -0.0448%.
On to `O=C(NNC(=O)c1ncc(Cl)c(Cl)c1Cl)c1ccc(F)cc1`, for which the “hERG current change (%, negative = inhibition) at 1uM” value is given as 13.2%.
Under `Fc1cc2[nH]c(=S)[nH]c2c(Br)c1N1CCSCC1` stands 16%; under `COc1ccc(C2CC(c3cccs3)=NN2C(=O)CSC2=NCCS2)cc1` (stereo not drawn), 6.8%; under `COCCCNC(=O)/C(C#N)=C/c1cc(C)[nH]c1C`, 13.7%.
With `CCN1C(=O)N(c2ccc(Cl)cc2)C(C)=CC1(C)C` the figure was 9.95%.
With `CCCC(=O)N1CCN(c2ccc(NC(=O)c3ccc(N4CCCC4)c([N+](=O)[O-])c3)cc2Cl)CC1` the figure was -8.46%.
Take `O=C(CSc1ncc(-c2ccc(F)cc2)n1Cc1ccco1)Nc1ccc2c(c1)OCO2`: the “hERG current change (%, negative = inhibition) at 1uM” value is listed as 11.5%.
In the case of `Cc1ccc(C)c2[nH]c(=O)c(CN(CCN3CCCC3)C(=O)Nc3ccc(F)cc3)cc12`, the “hERG current change (%, negative = inhibition) at 1uM” value is reported as -76.6%.
With `CCOc1ccccc1OCCCC(=O)Nc1nc2ccccc2[nH]1` the figure was 6.55%; with `CCOC(=O)Cc1csc(NC(=O)CSc2nnnn2-c2ccc(C)c(C)c2)n1`, 10%; with `Cc1cc(C)cc(OCC(=O)Nc2ccc(N3CCN(C(=O)c4ccco4)CC3)cc2)c1`, -3.17%.
For `COc1ccc(-n2ccnc(SCC(=O)NC3CCCCC3)c2=O)cc1`, the “hERG current change (%, negative = inhibition) at 1uM” value is recorded as 2.42%.
For the molecule `CCOC(=O)C1=C(N)OC2=C(C(=O)CC(C)(C)C2)C1C1CCCCC1` (stereo not drawn), the “hERG current change (%, negative = inhibition) at 1uM” value stood at 6.47%.
Under `CCCCN(CC)CCCNC(=O)c1cc2c(-c3ccc(OC)c(OC)c3)nn(C)c2s1` stands 3.69%.
With `O=C(Nc1ccccc1)N1CCC(c2ccccc2)C1` (stereo not drawn) the figure was 5.64%; with `COc1ccc(NC(=S)NCCN2CCOCC2)cc1`, 2.19%; with `CC(=O)N1CCC(N(CCN2CCOCC2)C(=O)Nc2ccc(Cl)c(Cl)c2)CC1`, 2.68%.
Regarding `Cc1cc(N/N=C/c2ccc(O)cc2O)nc(-n2nc(C)cc2C)n1`, the “hERG current change (%, negative = inhibition) at 1uM” value is on record as 7.03%.
With `Cc1cc(C)n(CC(=O)N/N=C/c2ccco2)n1` the figure was -3.45%.
Under `CC(=O)Nc1ccc(S(=O)(=O)NNC(=O)c2cccc(Cl)c2)cc1` stands 8.19%.
Under `Cn1cnc(S(=O)(=O)N2CCN(c3ccccc3)CC2)c1` stands 12%; under `C=CCOc1nc2c(c(=O)n(Cc3ccc(Cl)c(Cl)c3)c(=O)n2C)n1C`, 13.1%.
